# Reference: ChEMBL document CHEMBL5606460, “ASAP - DENV-2 NS2B-NS3 protease fluorescence single point” (2024)
# Hit rate of the full screen: of about 2,000 compounds, about 110 (5.5%) showed an effect of 50% or more. The list shows a part of the results.
# Target: Genome polyprotein (dengue virus type 2) (UniProt P29990)
# [1] = Thailand/16681/1984, Concentration 25.0 uM, Number of replicates 1.0
smiles,measurement,setting,value
O=S(=O)(c1ccc(Oc2ccccc2Cl)cc1)N1CCCCC1,inhibition,"Thailand/16681/1984, Concentration 49.5 uM, Number of replicates 2.0, Standard deviation 1.7286106762384137 %",3.23%
same,inhibition,"Thailand/16681/1984, Concentration 99.01 uM, Number of replicates 2.0, Standard deviation 0.7664143091245312 %",4.02%
same,inhibition,"Thailand/16681/1984, Concentration 198.0 uM, Number of replicates 2.0, Standard deviation 1.0381210487205594 %",7.6%
CN(CCCOc1ccc(Br)cc1)C(=O)C1CCN(c2ccc(C=O)cc2)CC1,inhibition,[1],-1.56%
O=Cc1ccc(N2CCC(C(=O)Nc3c(F)c(F)cc(F)c3F)CC2)cc1,inhibition,[1],13.9%
Cc1cc(CO)c2cccc(CC(=O)NCCc3ncc[nH]3)c2n1,inhibition,"Thailand/16681/1984, Concentration 49.95 uM, Number of replicates 2.0, Standard deviation 0.7345959673097169 %",39.1%
same,inhibition,"Thailand/16681/1984, Concentration 99.9 uM, Number of replicates 2.0, Standard deviation 0.015925439590932376 %",77.7%
CN(CCC(c1ccccc1)c1ccccc1)C(=O)C1CCN(c2ccc(C=O)cc2)CC1,inhibition,[1],4.26%
C[C@@H]1CCN(Cc2ccccc2)C[C@@H]1N(C)C(=O)C1CCN(c2ccc(C=O)cc2)CC1,inhibition,[1],16.5%
CCCCCN(CCCCC)C(=O)C1CCN(c2ccc(C=O)cc2)CC1,inhibition,[1],14.5%
c1ccc2[nH]c(CN3CC[C@H](c4c[nH]c5ccccc45)C3)cc2c1,inhibition,"Thailand/16681/1984, Concentration 49.5 uM, Number of replicates 2.0, Standard deviation 0.7608740215940771 %",4.51%
same,inhibition,"Thailand/16681/1984, Concentration 99.01 uM, Number of replicates 2.0, Standard deviation 0.30587350380986955 %",4.39%
same,inhibition,"Thailand/16681/1984, Concentration 198.0 uM, Number of replicates 2.0, Standard deviation 0.6449469231287406 %",3.06%
CC(C)Cn1cccc(C(=O)N[C@H]2CCCN(C)C2)c1=O,inhibition,"Thailand/16681/1984, Concentration 49.5 uM, Number of replicates 2.0, Standard deviation 0.6669640996160435 %",-2.84%
same,inhibition,"Thailand/16681/1984, Concentration 99.01 uM, Number of replicates 2.0, Standard deviation 0.010925306070993951 %",-2.69%
same,inhibition,"Thailand/16681/1984, Concentration 198.0 uM, Number of replicates 2.0, Standard deviation 0.5176514919942877 %",-0.838%
CCn1ccnc(N[C@@H](Cc2c[nH]c3ccccc23)C(=O)O)c1=O,inhibition,"Thailand/16681/1984, Concentration 49.5 uM, Number of replicates 2.0, Standard deviation 3.923841756395489 %",0.008%
same,inhibition,"Thailand/16681/1984, Concentration 99.01 uM, Number of replicates 2.0, Standard deviation 3.5390857683707204 %",2.09%
same,inhibition,"Thailand/16681/1984, Concentration 198.0 uM, Number of replicates 2.0, Standard deviation 3.6597093112390504 %",7.72%
CCn1ccnc(N2CC[C@H](c3ccc(OC)nc3)C2)c1=O,inhibition,"Thailand/16681/1984, Concentration 50.0 uM, Number of replicates 2.0, Standard deviation 0.28072363636644887 %",9.96%
same,inhibition,"Thailand/16681/1984, Concentration 100.0 uM, Number of replicates 2.0, Standard deviation 0.843255263217835 %",17.9%
same,inhibition,"Thailand/16681/1984, Concentration 200.0 uM, Number of replicates 2.0, Standard deviation 0.7121064089443038 %",30.8%
O=Cc1ccc(N2CCC(C(=O)N[C@H]3CCC[C@@H]3OCc3ccccc3)CC2)cc1,inhibition,[1],14.7%
N#C[C@H](c1c[nH]c2ccccc12)N1CCCCC1,inhibition,"Thailand/16681/1984, Concentration 49.5 uM, Number of replicates 2.0, Standard deviation 1.7041829423606667 %",-0.972%
same,inhibition,"Thailand/16681/1984, Concentration 99.01 uM, Number of replicates 2.0, Standard deviation 2.1140860898938385 %",0.234%
same,inhibition,"Thailand/16681/1984, Concentration 198.0 uM, Number of replicates 2.0, Standard deviation 2.4972043146057463 %",1%
CCCCCC(=O)N[C@@H](Cc1ccc(CN)cc1)C(=O)Nc1cccc(C(N)=O)c1,inhibition,"Thailand/16681/1984, Concentration 49.5 uM, Number of replicates 2.0, Standard deviation 2.7367965886293226 %",0.18%
same,inhibition,"Thailand/16681/1984, Concentration 99.01 uM, Number of replicates 2.0, Standard deviation 1.715794241074736 %",2.56%
same,inhibition,"Thailand/16681/1984, Concentration 198.0 uM, Number of replicates 2.0, Standard deviation 0.08109694285593377 %",6.73%
O=Cc1ccc(N2CCC(C(=O)Nc3ccc(OC(F)F)cc3)CC2)cc1,inhibition,[1],7.22%
CNC(=O)c1cc(Cl)ccc1NS(=O)(=O)c1ccc(F)c(C(=O)N2CCCC2)c1,inhibition,"Thailand/16681/1984, Concentration 49.5 uM, Number of replicates 2.0, Standard deviation 0.7714528805703116 %",-4.6%
same,inhibition,"Thailand/16681/1984, Concentration 99.01 uM, Number of replicates 2.0, Standard deviation 1.6986403894371052 %",-2.1%
same,inhibition,"Thailand/16681/1984, Concentration 198.0 uM, Number of replicates 2.0, Standard deviation 1.4542094148600992 %",1.16%
CCCN(C[C@H](O)COc1ccccc1C(=O)CCc1ccccc1)C(=O)C1CCN(c2ccc(C=O)cc2)CC1,inhibition,[1],15.7%
Cc1cc(CO)c2cccc(Cc3ccccc3NC(=O)c3cccc(Cn4cncn4)c3)c2n1,inhibition,"Thailand/16681/1984, Concentration 49.95 uM, Number of replicates 2.0, Standard deviation 1.7939035624271265 %",-0.44%
same,inhibition,"Thailand/16681/1984, Concentration 99.9 uM, Number of replicates 2.0, Standard deviation 0.960302709210288 %",1.88%
COc1cc(Br)ccc1NC(=O)C1CCN(c2ccc(C=O)cc2)CC1,inhibition,[1],13.7%
O=Cc1ccc(N2CCC(C(=O)N3CCC[C@H](c4nc5ccccc5o4)C3)CC2)cc1,inhibition,[1],13.1%
Cc1cc(N)cc(CNC(=O)c2ccccc2Cc2cccc3c(CO)cc(C)nc23)c1,inhibition,"Thailand/16681/1984, Concentration 49.95 uM, Number of replicates 2.0, Standard deviation 1.0161746789387547 %",47.1%
same,inhibition,"Thailand/16681/1984, Concentration 99.9 uM, Number of replicates 2.0, Standard deviation 1.7549489162224476 %",74.7%
CNC(=O)c1cc(Cl)ccc1NS(=O)(=O)c1ccc(Cn2cncn2)cc1,inhibition,"Thailand/16681/1984, Concentration 49.5 uM, Number of replicates 2.0, Standard deviation 0.7766096317793165 %",-1.89%
same,inhibition,"Thailand/16681/1984, Concentration 99.01 uM, Number of replicates 2.0, Standard deviation 1.2995063622910579 %",-0.333%
same,inhibition,"Thailand/16681/1984, Concentration 198.0 uM, Number of replicates 2.0, Standard deviation 1.6197418261994996 %",2.7%
